Over roughly 81,000 sequences, “one-hybrid fitness for binding parS DNA” has its median near -0.17; the highest 2% begin near 0.51. The list shows a part of the results.
B1: Caulobacter ParB omega fusion; a variant is named by its letters at X, in order, B8GW30 (parent)
chain: MESVVVGEPGMSEGRRGLGRGLSALLGEVDAAPAQAPGEQLGGSREAPIEILQRNPDQPRRTFREEDLEDLSNSIREKGVLQPILVRPSPDTAGEYQIVAGERAWRAAQRAGLKTVPIMVRELDDLAVLEIGIIENVQRADLNVLEEALSYKVLMEKFERTQENIAQTIGKSXSHVANXMRLLXLPDEVQSYLVSGELTAXHARAIAAAADPVALAKQIIEGGLSVRETEALARKAPNLSAGKSKGGRPPRVKDTDTQALESDLSSVLGLDVSIDHRGSTGTLTITYATLEQLDDLCNRLTRGI

Variants of: B1
Test: one-hybrid fitness for binding parS DNA (scaled: cognate 1, non-cognate 0); higher = stronger binding
Details: with parS DNA site
Summary of the method: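 On M9-minus-histidine containing 0.1 mM IPTG and 5 mM 3-AT, E. coli USO cells with a HIS3 reporter, site 19 bp from the promoter, grew 48 hours at 37°C to select Caulobacter ParB libraries randomised at four specificity codons. Plasmids from before and after were Illumina-sequenced, with three replicate libraries pooled and variants under 10 reads left out. Fitness is the log change in variant-to-wild-type read ratio, rescaled against cognate and non-cognate.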

one-hybrid fitness for binding parS DNA, 0.883:
RSKS

one-hybrid fitness for binding parS DNA, ≤ 0.2:
EVML
VNVV
LTIR
VACS
AYLL
PDNH
IRFW
QHGW
GHVV
QHHI
QEDV
RHWI
FGCS
WEPV
HCTR
WNSC
GTRA
CARK
QAQV
VCFS
HRHE
PTYG
PAWK
NLKT
VHVR
SDVC
GPDD
NRKH
NRTK
KTHA
SGFT
MKDF
VNNT
GLAG
RADL
WTWT
WHVG
VFSM
RRIL
WMDS
HKKA
DTLS
PAPA
PGTS
ESGG
STNN
NTPK
DQPF
PMVC
YQMR
ESHR
CIRG
PPVF
NMAY
CSLV
LHLC
ALMF
SSTD
VKHA
LAHR
NNDI
RSHI
ENTL
SQTP
TDAE
PAMD
LFSP
VLQK
HCGT
TAYL
DKLF
TSLP
ADNR
RPYE
VLAT
EHDS
VTNM
IRMF
QRDA
NLES
FPPW
HPRM
RQLH
EQNG
SGYD
MPRD
DHVC
HVPW
WNLA
LILY
DETG
STRS
TMKW
HVSR
EYTG
HRQY
HISE
HIHC
FSSG
MSTM
GKRV
HMPG
NTTR
NYWT
CNGR
TAGK
CPIT
AVRM
AIAS
LYAW
RAHQ
GHPN
MGLS
RPKF
HLYV
GFWM
ANHV
PPFR
GLAM
FQSA
GGAT
NLAP
RGIQ
PFMM
TAYT
LWVR
AVGL
APNG
HFQS
WPNH
PHDM
QEHL
WQRY
TELG
NVCC
MAPW
HRQM
KLQS
SYDV
EPTM
SSGC
RYHI
YEKR
TGVI
SMLY
GIHC
VKRW
PSVY
FHAR
EARK
PIHP
RYHD
NREC
MFWS
NCAW
SFHR
YTHE
GMKI
QGYA
SIWC
LMCR
HQVS
GEMS
GFPS
PPRC
SAEL
FPSL
RDWR
DQMT
VRRT
EKGT
RETD
GVHG
PDRW
MLVR
HSYW
SINK
VTRF
ERPD
PGCC
DTYT
PSEE
VNEF
VDVD
LQVS
LMVG
VLMH
YMGG
AMTT
GTTF
TTAA
SRRE
QSIW
QTAY
KSVC
MFAR
LFNR
FMNS
VLKL
YWLA
QQTG
FLSM
KNAE
RFHI
PDHV
KDWS
NSSV
QKMI
DTTI
NKSD
QTMA
DHPS
QFYN
SFPG
GHNT
HATL
VRFT
RAPR
LHNS
CQQG
FTPD
DSHP
TRIC
ATID
RLCV
DAVR
HITT
MDAY
TQVR
DFQA
NNGC
GHVS
SWNT
ENIG
WAFG
CLEI
PPYY
PTTY
KRYL
PSEC
QYYC
KNKS
SLHG
RSQE
KSNC
DCRY
KVNG
SPRH
TLMD
SRIK
CHDC
HPTP
RLVE
CAKS
HAKD
THTE
ICYG
RAYD
PCVA
NMTI
RRKD
MTQD
HPIS
VKPV
WLMS
IDPR
KHKH
PIPL
RRHI
SVYW
RPKP
PWMI
PQPT
TLWA
NQCG
PWDI
IGLG
QGKY
CGYR
PCML
PQHA
LSIC
WETS
EPDA
NEDG
YWPM
ETFT
SVGL
VLCR

one-hybrid fitness for binding parS DNA, 0.598:
RAWA

one-hybrid fitness for binding parS DNA, 0.991:
RMAS

one-hybrid fitness for binding parS DNA, 0.951:
RTQS

one-hybrid fitness for binding parS DNA, 0.924:
RVGT

one-hybrid fitness for binding parS DNA, 0.41:
RVVN

one-hybrid fitness for binding parS DNA, 0.913:
RYDG

one-hybrid fitness for binding parS DNA, 0.532:
RQFA

one-hybrid fitness for binding parS DNA, 0.348:
RYEN

one-hybrid fitness for binding parS DNA, 0.246:
RALF

one-hybrid fitness for binding parS DNA, 0.303:
EDRR

one-hybrid fitness for binding parS DNA, 0.205:
RMAP

one-hybrid fitness for binding parS DNA, 0.377:
RWKM

one-hybrid fitness for binding parS DNA, 0.492:
RICY

one-hybrid fitness for binding parS DNA, 0.213:
HRDS

one-hybrid fitness for binding parS DNA, 0.974:
RFHG

one-hybrid fitness for binding parS DNA, 0.434:
RYEY
